This is an account of results in publication PMC12136788.

This is one part of the list.

B1: chr9:59598888:59598889:+_ENSMUSG00000039585_ENSMUST00000128341|mus_mus|motif|central (ssRNA)
RNA: GGGAGUUCUACAGUCCGACGAUCGGACUGGGCAGGCACAUCCCCCGCCGCACCCCGCCCAGAGAGCACGCGUUGGAAGCGGAACCGCGGUCCCUGCUUUUGCCCGGGGACCGGUAUCUCCGCCGCAGUCCCUCCCCGUCCUGCCAACAGAGGAUUGAGCAUCA
B2: chr14:21319500:21319501:-_ENSMUSG00000021816_ENSMUST00000161445|mus_mus|FALSE|FALSE (ssRNA)
RNA: GGGAGUUCUACAGUCCGACGAUCGAGCUGUACUCCAGGGCAUGAGGGAAGCAGGCCACCAAAGUAAAGGGAAAUACCAAACUACAGUGGUAAUCAGUACAGGUCAGUCACUGUAAAAUUAGCACAUGGUUCCAUUUAGUUUAACAACAGAGGAUUGAGCAUCA
B3: chr8:106942660:106942661:-_ENSMUSG00000035770_ENSMUST00000041769|mus_mus|motif|central (ssRNA)
RNA: GGGAGUUCUACAGUCCGACGAUCCUUUUGUAUCAAGGUUUCAAAAUCACACUAUUAGGCAGUGUCUUUGCAAGAAUUCCGGGUUUCUGAGGUCAUUCACUUUGCCCUGGCUGCUACGGAGAUCAGUUGACCCUCCAUCAUGGUCAACAGAGGAUUGAGCAUCA
B4: chr14:21343058:21343059:-_ENSMUSG00000021816_ENSMUST00000161445|perfect_dup|motif|central (ssRNA)
RNA: GGGAGUUCUACAGUCCGACGAUCUGUAGUUUGACUUUUUCUGUACAUUCUAUAGCCUGCAUCUUGAGCUUCAUGAGCUCGGAUAAUCGAUAACAAAUUAUUGUUUUGCAAAAAUUCACACACUGCUGGAUAGUUAUAAAAAUACAACAGAGGAUUGAGCAUCA
B5: chr7:136912681:136912682:-_ENSG00000105894_ENST00000348225|hu_hu|FALSE|FALSE (ssRNA)
RNA: GGGAGUUCUACAGUCCGACGAUCAAACGCUACUACAAAAAUUUUCUUUUCUUUUUGUUUUUGCUUAUUGUGUACUUAGCUAUAGAUAAUUUUUGAAUACAAAGCCUACGGUACAUAUAAAUGCAAUAGUUAACUGAUCCUGUUCAACAGAGGAUUGAGCAUCA
B6: chr16:94664741:94664742:+_ENSMUSG00000040785_ENSMUST00000117648|mus_hu|mus_mus_mus_hu_False|18_48 (ssRNA)
RNA: GGGAGUUCUACAGUCCGACGAUCUGGUACUGAUCUUGGUAGCUGAUAUUCAGGAGAAAGGCUGGCCAAGGGUGUAUAUAUGCUGGUGAACUGCGACAAACCUGGUAACACGUUUAUGUACGCUGGUGGUGUCUGGGUGAUAUCCAACAGAGGAUUGAGCAUCA
B7: chr15:75216061:75216062:-_ENSG00000178741_ENST00000564811|perfect_dup|motif|central (ssRNA)
RNA: GGGAGUUCUACAGUCCGACGAUCUUUGUCAAGGCCCAGCUCCUCUGGAGUGGAGAUUCCCAAUUCAUUUAAAGUUGGUCGGAGUUCCUGGAUGACAUAGGGAUAGAUUUCCUUAUGAGGUCCUGCUUUGUCCUUAACAACCUCCAACAGAGGAUUGAGCAUCA
B8: chr16:32386223:32386224:+_ENSMUSG00000053774_ENSMUST00000115151|mus_hu|FALSE|FALSE (ssRNA)
RNA: GGGAGUUCUACAGUCCGACGAUCACUCUAAUUUGAUUUUGGGUUUUGUUGGCAGAAAAAGCCCAAGACAUCUGAAAAUUACUAGUAACCUCCGCCAUCCUCCUUACUAAAUGUUGUCUUCUGAAUGGAGUUGAAAGGUCUUCCCAACAGAGGAUUGAGCAUCA
B9: 118281626_118282927_3670_CDS_ENSMUSG00000005102_ENSMUST00000005233|mouse|control|control (ssRNA)
RNA: GGGAGUUCUACAGUCCGACGAUCCCCACAGUGUAGGAGUAUUGCCUUCAGAAGCAUCGUAUGGUUCAAGUAAAUGCUGUAAUUCCUUUCCUGAAGUGCAGGAAACUCCUGGAUUAUUUCAUAGAUGGUGUAGAUGGUUUCGGCCAACAGAGGAUUGAGCAUCA
B10: chr9:58049150:58049151:-_ENSMUSG00000051243_ENSMUST00000114144|mus_mus|FALSE|FALSE (ssRNA)
RNA: GGGAGUUCUACAGUCCGACGAUCACUUGCAGUGUGAUGCUGUGGGGCUGCGAGCCGGUCUCCAGACUCAGGUGACAGUCUAAGGGAGCUUCUGGCAUCUGUUGCCCGUCUUCAACCCUGCAGAACCCAGUGCCGGUCCAGACACAACAGAGGAUUGAGCAUCA
B11: 190530966_190531086_581_CDS_ENSG00000138381_ENST00000260952|human|control|control (ssRNA)
RNA: GGGAGUUCUACAGUCCGACGAUCAUUCCAUAGAAACACAUUGCCUCUUUCAUCUUCCACAGGCUGGGUAGUCAAAACACCCCUCAAGUGUAGGACGUGAGCAGAAAAUAAACACUGGUAGUUAACAUCAGACUUUAACAAUUGCAACAGAGGAUUGAGCAUCA
B12: chr1:60041781:60041782:+_ENSMUSG00000041040_ENSMUST00000036540|mus_hu|mus_mus_mus_hu_False|8_38 (ssRNA)
RNA: GGGAGUUCUACAGUCCGACGAUCAAGUUUACAAUAGUAAAGUAAAUGCAGUAGUGGCAAAUUUUCUUUUAUUUUCCUUCACAAAAGAAAAUCUUUAGAUCUCAGUUCUAGUCUUGGACAUAGUGAAUCUCCAUGGGUCUGACUCAACAGAGGAUUGAGCAUCA
B13: chr7:141450121:141450122:+_ENSG00000106028_ENST00000265304|hu_mus|hu_hu_hu_mus_True|8_88 (ssRNA)
RNA: GGGAGUUCUACAGUCCGACGAUCUCAUCCGUUCUAUGCCUUUUCUUUCGUCUGGUCACUCAGAAAUAUAAUGUUAUCAGCUAUGAUUGUUGUUGCUUGCCGCCUCACAUUGUUUUUAUCCAUGUACUCACCAUAGUCCACUUUCAACAGAGGAUUGAGCAUCA
B14: chrX:165757501:165757502:-_ENSMUSG00000031352_ENSMUST00000112115|mus_mus|motif|central (ssRNA)
RNA: GGGAGUUCUACAGUCCGACGAUCAGCAGGAGAAGAUGCUGAGGCACCCAUGGCUGGAAUCACAGGGGUCACUCCCAAUCGGAAAUACCCAGCAAAACGGGAGGCAAGGAGCGGCGAAGGGCAGGAAGCCACCAGUGUUGCCUUCAACAGAGGAUUGAGCAUCA
B15: 48040933_48045964_2092_CDS_ENSG00000138081_ENST00000403359|human|control|control (ssRNA)
RNA: GGGAGUUCUACAGUCCGACGAUCAUUAUAAACUAGAAUUCCACCAUUCUGUCCUCCCCAGAUUUUGUUGCGUCUAAUUUUGGGGUUGCUUCCAGUCCUUAUCUGAACCCCUGAAUACAUAUGAUUAUAGAUAUCAUUGUCUUCCAACAGAGGAUUGAGCAUCA
B16: chr5:173380165:173380166:+_ENSG00000113742_ENST00000334035|hu_hu|FALSE|FALSE (ssRNA)
RNA: GGGAGUUCUACAGUCCGACGAUCCACCCGUUUAUCUAUCUCUCCAUGCUGCAGCUGAACAAAGCGGGCACUGAUAGCAGCUAUGUAACUCUGUUGAUUAGAGAACGCAACUCUCCCAGCUCCUUUUGGGUAUUUUAGCUCAGGCAACAGAGGAUUGAGCAUCA
B17: 6297262_6297599_909_CDS_ENSMUSG00000041164_ENSMUST00000102914|mouse|control|control (ssRNA)
RNA: GGGAGUUCUACAGUCCGACGAUCAGGGCCAGGGGGCUGCCCAGGGCCAGGAGCAUACUGGGCAGUGUUGGCUGCAUACUGGCCUCCUUGCAGAUACUGCUGCCCAGGAUACACCUCUGAGUAGGCUCUCUUGAUCCCCUGUCGCAACAGAGGAUUGAGCAUCA
B18: chr11:4127340:4127341:+_ENSG00000167325_ENST00000300738|hu_mus|hu_hu_hu_mus_False|88_98 (ssRNA)
RNA: GGGAGUUCUACAGUCCGACGAUCGGCAUAGUCAGGGUGCUUAGUAGUCAAGGUUGCGGCUGUCUCAGCAGCCAGGGUGUCCAGUUCCACUGUGGUGACCCCACUAUAUAGGCCUUGGAUUACUUUCAUGGUGAUCUGAGCAGGCAACAGAGGAUUGAGCAUCA
B19: 130459521_130459641_1828_3pUTR_ENSMUSG00000066735_ENSMUST00000051758|mouse|control|control (ssRNA)
RNA: GGGAGUUCUACAGUCCGACGAUCCGCACAGACCUUCCUGGUAGAAUGCAAGUUCAAGUUCUCUGCUUCGUGGUAAGGAAGGGAAGGAGGGAUACUUCUGCCCCAGUUCUACCCACAGAAUGAUUUGGUUUGAGAUUUUAAGACCAACAGAGGAUUGAGCAUCA
B20: chr7:7679991:7679992:-_ENSG00000106399_ENST00000396682|hu_hu|hu_hu_hu_mus_False|38_88 (ssRNA)
RNA: GGGAGUUCUACAGUCCGACGAUCUGGGAUGAAUCUUUUCCAGCUUCCCUACGAAGCACACGGGCCGGUCGAUAUACUGUGGUAACAUGCUGGCGUUGAUGCGCGACUUGGGGAGCUGCAUUAUGUCCUCCAUGAUUCUGCCGCCAACAGAGGAUUGAGCAUCA
B21: chr8:133025090:133025091:+_ENSG00000132294_ENST00000254624|hu_hu|FALSE|FALSE (ssRNA)
RNA: GGGAGUUCUACAGUCCGACGAUCAUAAACAUUAAUUGUAAUGGUUUUCCUUUACAUGCAAUACAUGCAUUUUAAAAUCACUAAGAAACACGAAAUUUUGUAGAGCAAAGUUUGUGUUUCACGUAAGUGCAAAUGAAUAUAUAUCAACAGAGGAUUGAGCAUCA
B22: chr12:42180722:42180723:-_ENSMUSG00000036295_ENSMUST00000043884|mus_hu|mus_mus_mus_hu_True|18_18 (ssRNA)
RNA: GGGAGUUCUACAGUCCGACGAUCCUGUAGGAGAAGAAUCUGUGUGUUAGCUGGCAAUCUGGCUGGGAAAGUUAAAAGACCUAAAUCAUUACAAUCCACUGUAGAUGCUUCCAUAUAGAUGGAUCUCGGUGUAAACCAAGGCCUCAACAGAGGAUUGAGCAUCA

The target of the assay is T1, UNK ZnF1-3 (human, UniProt Q9C0B0 31-174).
T1 sequence: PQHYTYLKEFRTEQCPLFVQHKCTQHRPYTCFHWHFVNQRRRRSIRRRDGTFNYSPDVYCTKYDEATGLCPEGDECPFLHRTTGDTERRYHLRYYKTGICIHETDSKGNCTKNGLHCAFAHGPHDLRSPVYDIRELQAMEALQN
Kind of assay: nsRBNS (natural sequence RNA bind-n-seq); RBNS binding buffer (assumed for nsRBNS): 25 mM Tris pH 7.5, 150 mM KCl, 3 mM MgCl2, 0.01% Triton X-100, 500 ug/ml BSA, 20 U/ml SUPERase-In, 4 C; UNK is unkempt and MSI1 is Musashi-1; names of the RNAs are library labels; protein concentration not given here; high values mean tight binding.
Molecule B1 gave a binding signal of 1.07 enrichment R.

Molecule B2 had a binding signal of 1.28 enrichment R.

The molecule B3 gave a binding signal of 0.807 enrichment R.

The molecule B4 had a binding signal of 1.06 enrichment R.

Molecule B5 displayed a binding signal of 0.567 enrichment R.

The molecule B6 displayed a binding signal of 0.999 enrichment R.

Turning to B7, the binding signal was determined as 0.656 enrichment R.

B8 showed a binding signal of 1.45 enrichment R.

B9: the binding signal turned out to be 1.59 enrichment R.

B10 yielded a binding signal of 0.697 enrichment R.

B11 showed a binding signal of 1.02 enrichment R.

As to B12, the binding signal was 0.405 enrichment R.

Consider B13, for which the binding signal is 0.492 enrichment R.

With B14, the binding signal was 1.56 enrichment R.

The molecule B15 registered a binding signal of 0.735 enrichment R.

B16 registered a binding signal of 0.884 enrichment R.

With B17, the binding signal came out at 0.409 enrichment R.

Take B18: the binding signal is 0.956 enrichment R.

Regarding B19, the binding signal came to 1.36 enrichment R.

Consider B20, for which the binding signal came out at 0.484 enrichment R.

B21 registered a binding signal of 0.273 enrichment R.

Turning to B22, the binding signal turned out to be 0.956 enrichment R.
